Out of some 230,000 compounds screened, about 3,600 (1.6%) were called active. Inconclusive results, whose numbers are uncertain, are shown with a selection of clear calls. The call rests on the fitted dose curve; in most records, active means well fitted inhibition curve with a large enough effect (not every such curve was filed as active); inconclusive means small, poorly fitted or top-dose-only effect, or another doubt; inactive means no such curve, though single readings can be large or run the other way. Potencies of inconclusive entries are doubtful fits and often do not repeat.
Each compound was assayed against Lysine-specific demethylase 4E (Homo sapiens) (UniProt B2RXH2) (assay: qHTS Assay for Inhibitors of Human Jumonji Domain Containing 2E (JMJD2E)). Conditions: JMJD2E catalytic domain, FDH-coupled NADH fluorescence (FDH is formaldehyde dehydrogenase); series mostly up to 57.1 µM; activity change, negative = inhibition: at the top concentration.
Further: nearly all actives have a fitted effect of over 50% in size.
Potency means the concentration at half of the fitted maximal effect; tags describe the fitted curve by direction and shape.
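Wherever activity change, negative = inhibition is given: 0% = wells with enzyme and -100% = buffer wells without enzyme.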

Chain of UniProt B2RXH2 (B2RXH2 whole entry, looked up, the tested form may be a part): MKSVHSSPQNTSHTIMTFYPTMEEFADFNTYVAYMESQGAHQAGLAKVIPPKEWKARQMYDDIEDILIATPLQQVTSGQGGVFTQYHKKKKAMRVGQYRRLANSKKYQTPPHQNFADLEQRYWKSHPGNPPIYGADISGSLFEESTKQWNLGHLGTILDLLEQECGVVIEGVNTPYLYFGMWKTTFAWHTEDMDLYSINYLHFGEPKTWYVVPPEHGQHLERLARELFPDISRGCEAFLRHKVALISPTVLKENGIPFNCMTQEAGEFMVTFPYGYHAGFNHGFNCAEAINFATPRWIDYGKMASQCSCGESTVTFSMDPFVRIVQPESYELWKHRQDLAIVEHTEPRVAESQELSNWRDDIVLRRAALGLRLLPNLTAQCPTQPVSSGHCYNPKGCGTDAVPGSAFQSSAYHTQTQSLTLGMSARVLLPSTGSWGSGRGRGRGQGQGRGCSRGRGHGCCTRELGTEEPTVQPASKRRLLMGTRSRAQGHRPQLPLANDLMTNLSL

Question: `COc1cccc(C2=NO[C@@H]3C(=O)N(c4ccc5c(c4)OCCO5)C(=O)[C@H]23)c1OC` was tested. Which “activity change, negative = inhibition” value did it give?
Answer: inactive: -29.1%

Question: Which Potency does the source give for `Cc1ccc(CN2CN(S(=O)(=O)c3cccs3)c3nc4ccccc4nc32)cc1` here?
Answer: inconclusive: 31.6 µM [inhibitor, partial curve]

Question: Which “activity change, negative = inhibition” value does the source give for `Cc1ccc([N+](=O)[O-])cc1N1C(=O)CS/C1=N\NC(=O)c1cccnc1` here?
Answer: inactive: 4.22%

Question: How did the Potency turn out when `CCOC(=O)C1=C(CC)Nc2ccccc2N=C1NC(=O)c1ccc(S(=O)(=O)N(C)C)cc1` was run?
Answer: inconclusive: 35.5 µM [inhibitor, single point]

Question: For `CC(=O)NCCn1c(SCc2cc(=O)n3cc(Cl)ccc3n2)nc2ccccc2c1=O`, which Potency is on record?
Answer: inconclusive: 25.1 µM [inhibitor, partial curve]

Question: How did the Potency turn out when `c1ccc(-n2ncc3c(NCCCN4CCOCC4)ncnc32)cc1` was run?
Answer: inconclusive: 28.2 µM [inhibitor, partial curve]

Question: For `COC(=O)c1ccc2c(=O)n(CCCCCC(=O)NCCNC(C)=O)c(=O)[nH]c2c1`, which Potency is on record?
Answer: inconclusive: 31.6 µM [inhibitor, partial curve]

Question: With `CC1CCN(C(C(=O)NC2CCCCC2)c2cc3c(cc2[N+](=O)[O-])OCO3)CC1` (stereo unspecified) as the compound, how does the Potency read?
Answer: inconclusive: 25.1 µM [inhibitor, single point]

Question: How did the Potency turn out when `CCOc1ccc(CC(=O)OCc2cc(=O)n3cc(Br)ccc3n2)cc1` was run?
Answer: inconclusive: 39.8 µM [inhibitor, single point]

Question: With `COc1ccccc1/C=C/C(=O)NNC(=O)c1cccs1` as the compound, how does the Potency read?
Answer: inconclusive: 35.5 µM [inhibitor, single point]

Question: Which Potency does the source give for `COc1ccc(C(CCN2CCCC2)c2c(OC)cc(OC)c3c(-c4ccccc4)cc(=O)oc23)cc1` (stereo unspecified) here?
Answer: inconclusive: 39.8 µM [inhibitor, single point]

Question: How did the Potency turn out when `CC(=O)C1=C(O)C(=O)N(Cc2ccccc2)C1c1ccco1` (stereo unspecified) was run?
Answer: inconclusive: 1.78 µM [inhibitor, partial curve]

Question: For `COc1cc(CN(C(=S)NCC(=O)NC2CC2)C2CCCC2)cc(OC)c1OC`, which “activity change, negative = inhibition” value is on record?
Answer: inactive: -3.32%

Question: Which “activity change, negative = inhibition” value does the source give for `Cc1[nH]nc2c1C(c1ccco1)C(C#N)=C(N)O2` (stereo unspecified) here?
Answer: inactive: -2.45%

Question: For `Cc1cc(C)cc(N(CC(=O)Nc2ccccc2-c2ccccc2)S(=O)(=O)c2ccccc2)c1`, which “activity change, negative = inhibition” value is on record?
Answer: inactive: 1.91%

Question: For `CC(C)C(=O)Nc1ccc(N2CCCC2)c(Cl)c1`, which Potency is on record?
Answer: inconclusive: 1.41 µM [inhibitor, single point]

Question: For `Cc1nc2[nH]c(=O)c3c(n2n1)NC1=C(C(=O)CC(C)(C)C1)C3c1ccccc1` (stereo unspecified), which Potency is on record?
Answer: inconclusive: 31.6 µM [inhibitor, partial curve]

Question: Which Potency does the source give for `CCN1CCN(c2cc(C)c3cc(NC(=O)c4cccnc4Cl)ccc3n2)CC1` here?
Answer: inconclusive: 39.8 µM [inhibitor, single point]

Question: For `CN(C)c1cc(-c2ccc(Br)cc2)oc(=O)c1Cl`, which “activity change, negative = inhibition” value is on record?
Answer: inactive: 8.71%

Question: How did the Potency turn out when `COc1nc(N)c(C#N)c(-c2ccc(N(C)CCC#N)cc2)c1C#N` was run?
Answer: inconclusive: 28.2 µM [inhibitor, partial curve]

Question: `CCNc1ncnc2c1cnn2C` was tested. Which Potency did it give?
Answer: inconclusive: 39.8 µM [inhibitor, single point]

Question: Which Potency does the source give for `Cc1nn(-c2ccccc2)c2sc(C(=O)NCCN3CCOCC3)cc12` here?
Answer: inconclusive: 31.6 µM [inhibitor, partial curve]

Question: With `O=C(CN(C1CCCCC1)C1CCCCC1)N1CCc2ccccc2C1` as the compound, how does the Potency read?
Answer: inconclusive: 25.1 µM [inhibitor, single point]

Question: For `Cc1ccc(S(=O)(=O)Nc2cc(=O)[nH]c(SCC(=O)Nc3cccc(C)c3)n2)cc1`, which “activity change, negative = inhibition” value is on record?
Answer: inactive: -2.08%

Question: Which “activity change, negative = inhibition” value does the source give for `NC(=S)N/N=C/c1coc2ccc(Br)cc2c1=O` here?
Answer: inactive: -16.1%

Question: How did the Potency turn out when `Cc1ccc2cccc(SCC(=O)N3CCOCC3)c2n1` was run?
Answer: inconclusive: 22.4 µM [inhibitor, partial curve]

Question: Which Potency does the source give for `CC(=O)O[C@H]1CC(C)(C)C(=C=C/C(C)=C/C=C/C(C)=C/C=C/C=C(C)/C=C/C=C(\C)C(=O)C[C@@]23O[C@]2(C)C[C@@H](O)CC3(C)C)[C@](C)(O)C1` here?
Answer: inconclusive: 39.8 µM [inhibitor, single point]

Question: For `CCOc1cccc(/C(O)=C2/C(=O)C(=O)N(CCN3CCOCC3)C2c2ccncc2)c1` (stereo unspecified), which “activity change, negative = inhibition” value is on record?
Answer: inactive: 9.31%

Question: For `C=CCN1C(=O)C(CC(=O)Nc2ccc(OC)cc2)SC1=Nc1ccc(S(N)(=O)=O)cc1` (stereo unspecified), which “activity change, negative = inhibition” value is on record?
Answer: inactive: 0.732%

Question: `Cc1nc(C(=O)Nc2cc(Cl)ccc2Cl)nn1-c1cc(OC(C)C)c(Cl)cc1Cl` was tested. Which “activity change, negative = inhibition” value did it give?
Answer: inactive: -1.15%

Question: `NC(=O)c1ccc(N=Cc2ccc([N+](=O)[O-])s2)cc1` was tested. Which Potency did it give?
Answer: active: 22.4 µM

Question: With `Cc1cccc(N2NC(=O)/C(=C/c3ccc(-c4ccc(Cl)c(C(=O)O)c4)o3)C2=O)c1` as the compound, how does the Potency read?
Answer: inconclusive: 31.6 µM [inhibitor, partial curve]

Question: Which “activity change, negative = inhibition” value does the source give for `COC(=O)c1ccc(C(=S)N2CCOCC2)cc1` here?
Answer: inactive: 2.99%

Question: `COc1ccc(N2CCN(C(=O)c3ccc(OCc4c(C)noc4C)c(OC)c3)CC2)cc1` was tested. Which Potency did it give?
Answer: inconclusive: 3.55 µM [inhibitor, single point]

Question: With `COc1cc2c(cc1OC)-c1cc3ccc(OC)c(OC)c3c[n+]1CC2` as the compound, how does the Potency read?
Answer: inconclusive: 28.2 µM [inhibitor, single point]

Question: How did the Potency turn out when `Cc1cc(/C=N/NC(=O)C(O)(c2ccccc2)c2ccccc2)c(C)n1-c1ccc(C(=O)O)cc1` was run?
Answer: inconclusive: 22.4 µM [inhibitor, partial curve]

Question: `CCn1c2ccccc2c2cc(NC(=O)CSc3nccc(=O)[nH]3)ccc21` was tested. Which Potency did it give?
Answer: inconclusive: 25.1 µM [inhibitor, single point]

Question: With `COc1ccc(-c2ncccc2OC(=O)C23CC4CC(CC(C4)C2)C3)cc1OC` as the compound, how does the Potency read?
Answer: inconclusive: 35.5 µM [inhibitor, partial curve]

Question: `Cc1ccc(C2(C)NC(=O)N(CC(=O)Nc3ccc(-c4nc5ccc(C)cc5s4)cc3)C2=O)cc1` (stereo unspecified) was tested. Which Potency did it give?
Answer: inconclusive: 25.1 µM [inhibitor, partial curve]

Question: For `Cc1ccc(C(=O)NC(=S)Nc2ccccc2N2CCCC2)cc1[N+](=O)[O-]`, which “activity change, negative = inhibition” value is on record?
Answer: inactive: 12.3%

Question: With `O=C(CC1C(=O)NCCN1Cc1ccc(-c2ccccc2)cc1)NCc1ccncc1` (stereo unspecified) as the compound, how does the Potency read?
Answer: inconclusive: 35.5 µM [inhibitor, partial curve, poor fit]

Question: With `Cc1ccc2[nH]c(O)c(N=O)c2c1` as the compound, how does the “activity change, negative = inhibition” value read?
Answer: inactive: 8.53%

Question: With `CCN(CC)S(=O)(=O)c1cccc(-n2c(O)c(C=Nc3ccccc3C(=O)O)c3ccccc3c2=O)c1` as the compound, how does the Potency read?
Answer: inconclusive: 39.8 µM [inhibitor, single point]

Question: With `CCOC(=O)C1CCCN(Cc2c(Cl)cccc2Cl)C1` (stereo unspecified) as the compound, how does the Potency read?
Answer: inconclusive: 39.8 µM [inhibitor, single point]

Question: How did the Potency turn out when `COCCNC(=S)NNC(=O)c1ccc(-n2cnnn2)cc1` was run?
Answer: inconclusive: 39.8 µM [inhibitor, single point]

Question: `CCCCNc1nc(-c2ccccc2)cc(C(F)(F)F)c1C(N)=O` was tested. Which Potency did it give?
Answer: inconclusive: 35.5 µM [inhibitor, partial curve]

Question: `CC(=O)NC1=NC(=O)/C(=C/c2cc(C)n(-c3cccc(C(=O)O)c3)c2C)S1` was tested. Which Potency did it give?
Answer: inconclusive: 39.8 µM [inhibitor, single point]

Question: `O=[N+]([O-])/C=C\c1ccc(N2CCCC2)c(F)c1` was tested. Which “activity change, negative = inhibition” value did it give?
Answer: inactive: 10.6%

Question: How did the Potency turn out when `Cc1ccc(C)n1-c1cccc(C(=O)O)c1` was run?
Answer: inconclusive: 25.1 µM [inhibitor, partial curve]

Question: For `Cc1nc(-c2ccc(Cl)cc2)sc1C1(C)CC(c2cccc(F)c2)=NO1` (stereo unspecified), which Potency is on record?
Answer: inconclusive: 28.2 µM [inhibitor, partial curve]

Question: Which “activity change, negative = inhibition” value does the source give for `Nc1ccc(NC(=S)Nc2ccccc2)cc1` here?
Answer: inactive: -1.26%

Question: For `Cc1cc(C(=O)Nc2cnn(Cc3ccc(Cl)cc3Cl)c2)no1`, which Potency is on record?
Answer: inconclusive: 39.8 µM [inhibitor, single point]

Question: Which Potency does the source give for `Cn1nc(-c2ccc(Cl)cc2)nc2c(=O)n(C)c(=O)nc1-2` here?
Answer: inconclusive: 18.9 µM [inhibitor, partial curve, poor fit]

Question: `O=C(N/N=C/c1ccc([N+](=O)[O-])o1)c1ccc(O)cc1` was tested. Which Potency did it give?
Answer: inconclusive: 2.82 µM [inhibitor, full curve]

Question: With `CCOc1cc(NC(=S)NCCCN2CCOCC2)c(OCC)cc1NC(=O)c1ccccc1` as the compound, how does the Potency read?
Answer: inconclusive: 39.8 µM [inhibitor, single point]

Question: With `CCOC(=O)c1ccn(-c2nc(-c3ccco3)cc(C(F)(F)F)n2)n1` as the compound, how does the Potency read?
Answer: inconclusive: 25.1 µM [inhibitor, partial curve]

Question: With `O=C(C1=C(O)C(=O)N(CCN2CCOCC2)C1c1ccccn1)c1cccs1` (stereo unspecified) as the compound, how does the Potency read?
Answer: inconclusive: 31.6 µM [inhibitor, single point]

Question: For `NS(=O)(=O)c1ccc(NC(=O)COC(=O)c2c3c(nc4ccccc24)/C(=C\c2ccc4c(c2)OCO4)CCC3)cc1`, which Potency is on record?
Answer: inconclusive: 28.2 µM [inhibitor, partial curve]

Question: Which Potency does the source give for `O=C(N/N=C/c1cc(Cl)ccc1O)c1ccc(Br)cc1` here?
Answer: inconclusive: 25.1 µM [inhibitor, single point]

Question: How did the “activity change, negative = inhibition” value turn out when `Cc1c(NC2=NC(C)(C)Cc3ccccc32)c(=O)n(-c2ccccc2)n1C` was run?
Answer: inactive: 4.64%

Question: How did the Potency turn out when `O=C(O)/C=C/c1cn(-c2ccccc2)nc1-c1ccc2c(c1)OCCO2` was run?
Answer: inconclusive: 35.5 µM [inhibitor, partial curve]

Question: Which Potency does the source give for `CC1(C)CC(=O)/C(=C(\O)CCCN2C(=O)c3ccccc3C2=O)C(=NCCO)C1` here?
Answer: inconclusive: 22.4 µM [inhibitor, partial curve, poor fit]

Question: How did the “activity change, negative = inhibition” value turn out when `CN1C(=O)NC(c2ccc(O)cc2)C(C(=O)c2cccs2)C1(O)C(F)(F)F` (stereo unspecified) was run?
Answer: inactive: -2.43%

Question: `COc1ccc(Cl)cc1NC(=O)C(=O)N/N=C/c1cc(C)n(-c2ccc(C)cc2)c1C` was tested. Which Potency did it give?
Answer: inconclusive: 28.2 µM [inhibitor, single point]

Question: For `Cc1ccccc1Nc1nc(-c2sc(NC(=O)c3ccc([N+](=O)[O-])cc3)nc2C)cs1`, which “activity change, negative = inhibition” value is on record?
Answer: inactive: 4.09%

Question: With `O=C(CNC(=O)Cc1ccccc1)N=Nc1c(O)n(Cc2ccc3c(c2)OCO3)c2ccccc12` as the compound, how does the “activity change, negative = inhibition” value read?
Answer: inactive: -3.19%

Reference: PubChem BioAssay AID2147 (National Center for Advancing Translational Sciences (NCATS), 2009)
